Laboratory results published in PubChem BioAssay AID588453 (National Center for Advancing Translational Sciences (NCATS), 2011).
Where “and” joins values, the source holds several entries; their conditions need not be identical. Identical values can stand only once. The campaign covered roughly 390,000 compounds. About 4,000 (1%) were called active. Inconclusive means that the source gave no clear call. Such entries were picked first, then a sample of the others. Calls follow the shape of the dose curve; as a rule, active = well fitted inhibition curve with a large enough effect; inconclusive = small, poorly fitted or top-dose-only effect; inactive = no such curve, though single readings can be large or run the other way. Potencies beside an inconclusive call are fits to weak or partial responses and may not hold up.

target: Thioredoxin reductase 1, cytoplasmic (Rattus norvegicus) (UniProt O89049); experiment: qHTS Assay for Inhibitors of Mammalian Selenoprotein Thioredoxin Reductase 1 (TrxR1): qHTS; settings: recombinant rTrxR1, NADPH fluorescence consumption, selenite substrate; series mostly up to 114 µM; activity change, negative = inhibition: at the top concentration; also: nearly all actives have a fitted effect of over 65% in size
Chain of UniProt O89049 (O89049 whole entry, looked up): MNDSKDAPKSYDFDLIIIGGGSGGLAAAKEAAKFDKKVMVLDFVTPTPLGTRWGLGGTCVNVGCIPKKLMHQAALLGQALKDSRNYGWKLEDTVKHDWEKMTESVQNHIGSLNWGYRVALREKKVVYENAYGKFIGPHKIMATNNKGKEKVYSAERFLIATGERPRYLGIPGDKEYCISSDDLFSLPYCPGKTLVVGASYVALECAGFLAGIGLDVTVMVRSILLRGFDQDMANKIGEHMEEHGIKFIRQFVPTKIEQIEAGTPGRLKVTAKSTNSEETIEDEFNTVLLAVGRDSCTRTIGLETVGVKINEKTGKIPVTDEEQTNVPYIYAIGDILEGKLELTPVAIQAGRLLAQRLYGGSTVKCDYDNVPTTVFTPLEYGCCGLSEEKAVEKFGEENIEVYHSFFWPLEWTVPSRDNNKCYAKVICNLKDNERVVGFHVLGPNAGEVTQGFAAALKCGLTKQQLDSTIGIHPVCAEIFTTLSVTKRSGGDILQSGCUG
Method in brief: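 Rat TrxR1 (90 nM in the dispensed reagent) was pre-reduced with 400 uM NADPH for 5 min at room temperature, then incubated with compound for 15 min. After 400 uM selenite was added, NADPH fluorescence (Ex 340/Em 450 nm) was followed for 8 min.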
% is scaled to controls: 0 for no effect and ±100 for the full control effect; potency is read from the fitted curve at half-maximal effect; tags tell the direction and shape of the fitted curve.

| SMILES | Potency | activity change, negative = inhibition |
| --- | --- | --- |
| Cc1ccc(C)c(NC(=S)NC2CC3CCC(C2)N3Cc2ccco2)c1 (centres undefined) | inconclusive: 3.98 µM [inhibitor, full curve] |  |
| O=C1NC(=O)N(Cc2ccco2)C(=O)/C1=C/c1cccn1CCOc1ccccc1Cl | inconclusive: 8.91 µM [inhibitor, full curve] |  |
| CN(Cc1ccccc1)C(=C(Cl)Cl)/C(=C1/NCCN1Cc1ccc(Cl)nc1)[N+](=O)[O-] | inconclusive: 25.1 µM [inhibitor, partial curve, poor fit] |  |
| CCOC(=O)N(c1ccccc1)P1(=S)OCCO1 |  | inactive: -9.24% |
| CN1CCC(O)(c2cccs2)C(C(=O)c2cccs2)C1 (centres undefined) | inconclusive: 0.282 µM [inhibitor, full curve, poor fit] |  |
| COC(=O)c1ccc(NC(=O)NC(=O)Oc2ccccc2)cc1 | inconclusive: 89.1 µM [inhibitor, single point] |  |
| CC1CCCCN1CC(=O)c1ccc2cc[nH]c2c1 (centres undefined) | inconclusive: 17.8 µM [inhibitor, single point] |  |
| COc1ccc(CC(=O)NC(=S)NNC(=O)COc2c(C)cccc2C)cc1 | inconclusive: 22.4 µM [inhibitor, full curve] |  |
| CN1CSC(=S)N(C)C1 |  | inactive: -18% |
| N#CC(Br)Br | inconclusive: 79.4 µM [inhibitor, single point] |  |
| CC(C)CCn1c(N)c(C(=O)OCC2CCCO2)c2nc3ccccc3nc21 (centres undefined) | inconclusive: 89.1 µM [inhibitor, single point] |  |
| CCN(CC)C(=O)c1ccc2c(c1)C1C=CCC1C(C(=O)O)N2 (centres undefined) | inconclusive: 4.47 µM [inhibitor, partial curve, poor fit] |  |
| CCCCn1c(O)c(C(=O)/C=C/c2ccc3c(c2)OCO3)c(=O)[nH]c1=O |  | inactive: -17.6% [at 57.1 µM] |
| C#CCOc1ccc(OC)cc1C(c1c(C)[nH][nH]c1=O)c1c(C)[nH][nH]c1=O | inconclusive: 56.2 µM [inhibitor, partial curve, poor fit] |  |
| CCN1C(=O)/C(=C/c2ccc3c(c2)CCN3CCCCl)C(=O)NC1=S | active: 28.2 µM |  |
| C=CCNC(=O)c1c(N)n(Cc2ccco2)c2nc3ccccc3nc12 | inconclusive: 1.58 µM [inhibitor, full curve] |  |
| CCOC(=O)C(NC(C)=O)C(OC(C)=O)c1cccc(N(CCCl)CCCl)c1 (centres undefined) | inconclusive: 10 µM [inhibitor, partial curve, poor fit] |  |
| CN1C(=O)CCS(=O)(=O)C1c1ccc(Cl)cc1 (centres undefined) | inconclusive: 0.126 µM [inhibitor, full curve, poor fit] |  |
| C/C(=N\NC(=S)Nc1ccccc1)c1c(O)n(C)c(=O)n(C)c1=O | inconclusive: 39.8 µM [inhibitor, full curve, poor fit] |  |
| CC(=O)c1cccc(NC(=O)c2noc3c2CSc2ccccc2-3)c1 | inconclusive: 44.7 µM [inhibitor, partial curve] |  |

| SMILES | Potency | activity change, negative = inhibition |
| --- | --- | --- |
| Cc1cccc(NC(=S)NC2CC3CCC(C2)N3Cc2ccco2)c1 (centres undefined) | inconclusive: 1.78 µM [inhibitor, full curve] |  |
| O=C1NC(=S)NC(=O)C12C(c1ccc(F)cc1)NC(=S)NC2c1ccc(F)cc1 (centres undefined) | inconclusive: 28.2 µM [inhibitor, partial curve, poor fit] |  |
| Cc1cccc(N=Nc2ccc(N(C)C)cc2)c1 | inconclusive: 89.1 µM [inhibitor, single point] |  |
| CCCn1c(C)c(C(=O)c2cccc3ccccc23)c2ccccc21 |  | inactive: 8.06% |
| CCOc1ccc(N2C(=O)/C(=C/c3ccc(C)o3)C(=O)NC2=S)cc1 | active: 25.1 µM |  |
| O=C(O)Cc1cnc[nH]1 | inactive and inconclusive: 532 nM [inhibitor, full curve, poor fit] |  |
| C=CCN1C(=O)NC(=O)/C(=C/c2c(CCN(C)C(=O)c3ccccc3)cc3c(c2OC)OCO3)C1=O | inconclusive: 15.8 µM [inhibitor, partial curve, poor fit] |  |
| O=[N+]([O-])c1ccc(N2CCCCCC2)c2nonc12 | inconclusive: 89.1 µM [inhibitor, partial curve, poor fit] |  |
| On1ccccc1=S | inconclusive: 11.2 µM [inhibitor, full curve] |  |
| CC1CCN(C(=O)CCl)CC1 | inconclusive: 56.2 µM [inhibitor, partial curve, poor fit] |  |
| COC(=O)C1=C(c2ccc(F)cc2OCc2ccccc2)C[C@@H]2CC[C@H]1N2C(=O)NCc1ccc(Br)cc1 |  | inactive: 10.1% |
| Cc1cc(O)c2c(c1)C(=O)C13C(=C2O)C(=O)[C@H]2[C@@H](O)[C@@H]1[C@H]1[C@H](O)[C@@H]3C(=O)C3=C(O)c4c(O)cc(C)cc4C(=O)C312 (some centres undefined) | inconclusive: 89.1 µM [inhibitor, single point] |  |
| CCC(C)N1C(=O)/C(=C\c2ccc(N3CCCCCC3)cc2)C(=O)NC1=S (centres undefined) | active: 8.91 µM |  |
| COc1cccc(N2C(=O)NC(=O)/C(=C\c3ccc([N+](=O)[O-])s3)C2=O)c1 | inconclusive: 25.1 µM [inhibitor, single point] |  |
| N=C(N)c1ccc(-c2ccc(-c3ccc(C(=N)N)cc3)o2)cc1 | inconclusive: 35.5 µM [inhibitor, partial curve, poor fit] |  |
| O=[N+]([O-])c1ccc(N2CCCNCC2)c2ncccc12 | inconclusive: 11.2 µM [inhibitor, full curve] |  |
| Clc1ccc(C(c2ccc(Cl)cc2)n2cc[n+](CC(OCc3ccc(Cl)cc3Cl)c3ccc(Cl)cc3Cl)c2)cc1 (centres undefined) | inconclusive: 25.1 µM [inhibitor, partial curve, poor fit] and inconclusive: 39.8 µM [inhibitor, full curve] and inconclusive: 17.8 µM [inhibitor, partial curve, poor fit] |  |
| COCCNc1oc(-c2ccc(OC)cc2)nc1C#N | inconclusive: 100 µM [inhibitor, single point] |  |
| CCN1C(=O)NC(=O)/C(=C/c2cc(C)n(-c3sc(C)c(C)c3C#N)c2C)C1=O | inconclusive: 15.8 µM [inhibitor, partial curve, poor fit] |  |
